Laboratory results reported in EP2386565A2, “Compounds and methods to inhibit or augment an inflammatory response” (Cambridge Enterprise Ltd., priority 1999, dated 2000).
Part of at least one peptide drawing is inferred or uncertain, most often the ends. Positions of bridges follow the written chain, without caps; N, C: chain ends. Non-standard residues stand in square brackets, D forms with d. Residues, ends and D or L forms follow the SMILES beside them. No end group written: not given here.

Columns and labels:
[1] = system: MCP-1 induced THP-1 migration; test: THP-1 trans-well migration assay, MCP-1 as chemoattractant; assay type: cell-based, human; settings: concentration as stated in the block
Method: (§1) To determine whether an agent inhibits a chemokine-induced activity, such as macrophage recruitment, varying amounts of the agent are mixed with cells in the presence of a known chemoattractant. For example, a range of known concentrations of an agent, e.g., a chemokine peptide, is incubated with a defined number (e.g., 10^4 - […]) of human THP-1 monocyte cells in individual wells of the top compartment of a trans-well plate. Chemokine (such as MCP-1, MIP1α, IL8 or SDF-1α), at a concentration known to cause significant migration of THP-1 cells in the trans-well migration assay, is placed in the lower compartment (Figure 1). […] A standard curve consisting of a two-fold dilution series of THP-1 cells (in 29 µl) is prepared to accurately quantify the number of cells that have migrated. […] Absorbance of converted dye is measured at a wavelength of 595 nm using an ELISA plate reader. The number of migrated cells in each well is then determined by interpolation of the standard curve (see also Imai et al.,J. Biol. Chem., 272, 15036 (1997)). […]
(§2) After incubation, the cells were gently removed from the top of the filter with a pipette, 20 µl of 20 mM EDTA in PBS was added into each top well, and the mixture was incubated for 20 minutes at 4°C. […] A standard curve was prepared to accurately quantify the number of THP-1 cells that had migrated. […]

[2] = system: MIP1α induced THP-1 migration; test: THP-1 trans-well migration assay, MIP1α as chemoattractant; assay type: cell-based, human; settings: agent at 100 µM, n.s. or dash = no statistically significant inhibition
Method: as §1, §2

[3] = system: chemokine-induced THP-1 migration; test: THP-1 trans-well migration assay, several chemokines together (averages, selectivity, pan-chemokine statements); assay type: cell-based, human; settings: for effect on chemokine-induced THP-1 migration (in words): MCP-1, MIP1α, IL-8 and SDF1α
Method: To determine whether an agent inhibits a chemokine-induced activity, such as macrophage recruitment, varying amounts of the agent are mixed with cells in the presence of a known chemoattractant. […] Chemokine (such as MCP-1, MIP1α, IL8 or SDF-1α), at a concentration known to cause significant migration of THP-1 cells in the trans-well migration assay, is placed in the lower compartment (Figure 1). Cells are then incubated at 37°C for a period sufficient to allow migration, e.g., 4 hours. After incubation, the cells are gently removed from the top of the filter with a pipette, 20 µl of 20 mM EDTA in simple PBS is added into each top well, and incubated for 20 minutes at 4°C. The filter is carefully flushed with media using a gentle flow, and removed. […] The media is carefully aspirated from each well, and the converted dye is solubilized by 20 µl of DMSO.
Chemotaxis was induced in a 96-well disposable chemotaxis chamber fitted with a 5 µM polycarbonate filter (PVP free, ChemoTX, Neuroprobe Inc., Cabin John). […] The framed filter was aligned with the holes in the corner of the filter frame and placed over the wells.
Peptides were dissolved in Milli Q water and then serially diluted in culture medium. In most cases, the serially diluted peptides were added to the upper compartment of the chemotaxis chamber. The chamber was incubated at 37°C in a humidified atmosphere of 5% CO2 for 4 hours.
After incubation, the cells were gently removed from the top of the filter with a pipette, 20 µl of 20 mM EDTA in PBS was added into each top well, and the mixture was incubated for 20 minutes at 4°C. The filter was then carefully flushed with media using a gentle flow, and removed. […] The curve was based on a two-fold dilution series of THP-1 cells (top standard 100,000 cells in 29 µl). […] The media was carefully aspirated from each well, and the converted dye was solubilized by 20 µl of DMSO.
Representative chemokines included […] ("CC"), MIP-1α and RANTES, and two alpha-chemokines ("CXC"), IL-8 and SDF-1α. Additionally, to determine the specificity ofpeptide 3(1-12)[MCP-1]
The number of pluses is a qualitative indicating of the activity of each peptide in each assay.

[4] = molecular target: T1, Duffy Antigen Receptor for Chemokines (DARC) (Homo sapiens, UniProt Q16570); test: DARC binding: competition with 125I-MCP-1 on red blood cells
T1 sequence (Q16570 1-336): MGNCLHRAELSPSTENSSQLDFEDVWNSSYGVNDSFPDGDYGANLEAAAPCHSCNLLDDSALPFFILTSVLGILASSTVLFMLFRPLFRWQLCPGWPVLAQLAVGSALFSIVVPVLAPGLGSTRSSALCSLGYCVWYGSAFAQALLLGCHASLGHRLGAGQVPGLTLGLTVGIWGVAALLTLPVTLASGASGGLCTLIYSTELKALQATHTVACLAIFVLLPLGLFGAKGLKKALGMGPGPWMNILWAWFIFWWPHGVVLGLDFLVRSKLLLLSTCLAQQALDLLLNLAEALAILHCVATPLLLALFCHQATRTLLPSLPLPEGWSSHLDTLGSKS

Question: Which “activity in MCP-1 induced THP-1 migration (in words)” value [1] does the source give for CC[C@@H](C)[C@H]1NC(=O)[C@@H](CCC(N)=O)NC(=O)[C@H](N)CSSC[C@H](C(N)=O)NC(=O)[C@H](CC(C)C)NC(=O)[C@@H](CC(=O)O)NC(=O)[C@H]2CCCN2C(=O)[C@@H](CCCCN)NC(=O)[C@@H](CCC(N)=O)NC(=O)[C@@H](CCCCN)NC(=O)[C@@H](Cc2c[nH]c3ccccc23)NC1=O (H-[dC][dQ][dI][dW][dK][dQ][dK][dP][dD]L[dC]-NH2; disulfide 1-11) here?
Answer: retained functional activity

Question: Which “% inhibition at 100 µM versus MIP1α” value [2] does the source give for N[C@@H](CO)C(=O)N[C@@H](CCC(=O)O)C(=O)N[C@@H](CCC(=O)O)C(=O)O [SEE] (H-Ser-Glu-Glu-OH) here?
Answer: 65 ± 3%

Question: And the “ED50 for inhibition of the one chemokine the tripeptide is specific for (column AVERAGE ED50, footnote f)” value [3]?
Answer: 0.8^f µM

Question: And the “selectivity for MIP1α versus all other chemokines” value [3]?
Answer: > 100 fold

Question: What about the “CC specificity / selectivity ratio” value ([3]; Table 5: average ED50 versus SDF1 and IL8 divided by average ED50 versus MCP-1 and MIP1α) of the same compound?
Answer: > 100

Question: With DYFETSSQCSKPGV [Pep2[MIP1α]] as the compound, how does the “effect on chemokine-induced THP-1 migration (in words)” value [3] read?
Answer: did not inhibit

Question: How did the “effect on chemokine-induced THP-1 migration (in words)” value [3] turn out when HLKILNTPNCALQIV [Pep2[SDF1]] was run?
Answer: potent pan-chemokine antagonist properties

Question: How did the “association / affinity constant for DARC” value [4] turn out when SYRRITSSK [Peptide 2(1-9)[MCP-1]] was run?
Answer: about 50 µM

Question: What does the source list for SYRRITSSKCPKEAV [Peptide 2]?
Answer: % inhibition at 100 µM of migration induced by any of the chemokines tested ([3]; 100 µM, CC and CXC chemokines): ≤ 20%; effect on chemokine-induced THP-1 migration (in words) [3]: no significant effect
